Values quoted from earlier work as cited in publication PMC11006913.
The list shows a part of the results.

Experiments:
Settings in all cases: PBM; conditions not shown; double strand, one strand shown; scale: upbm affinity estimate (log intensity, higher = more binding, comparable within an allelic series)
[1] = biological target: NKX2-5 K183E (Homo sapiens) (UniProt P52952)
[2] = biological target: NKX2-5 R161P (Homo sapiens) (UniProt P52952)
[3] = biological target: NKX2-5 R190C (Homo sapiens) (UniProt P52952)

AAGTGTTC [8-mer AAGTGTTC]
binding signal [1]: 10.9
binding signal [2]: 12.2
binding signal [3]: 10.7

CACTTAGG [8-mer CACTTAGG]
binding signal [1]: 11.5
binding signal [2]: 12.7
binding signal [3]: 10.8

CCACTCAA [8-mer CCACTCAA]
binding signal [1]: 11.6
binding signal [2]: 12.5
binding signal [3]: 10.8

CACTTAGA [8-mer CACTTAGA]
binding signal [1]: 11.4
binding signal [2]: 12.4
binding signal [3]: 10.7

CCACTTTA [8-mer CCACTTTA]
binding signal [1]: 11.9
binding signal [2]: 12.9
binding signal [3]: 10.9

CTGGGATC [8-mer CTGGGATC]
binding signal [1]: 10.3
binding signal [2]: 10.3
binding signal [3]: 10.2

CGCGGCTA [8-mer CGCGGCTA]
binding signal [1]: 10.2
binding signal [2]: 10.3
binding signal [3]: 10.2

CGGGCTCA [8-mer CGGGCTCA]
binding signal [1]: 10.2
binding signal [2]: 10.3
binding signal [3]: 10.2

CACACTTA [8-mer CACACTTA]
binding signal [1]: 11.2
binding signal [2]: 12.6
binding signal [3]: 10.8

CGGCTCAA [8-mer CGGCTCAA]
binding signal [1]: 10.2
binding signal [2]: 10.4
binding signal [3]: 10.2

GCCACGGA [8-mer GCCACGGA]
binding signal [1]: 10.2
binding signal [2]: 10.4
binding signal [3]: 10.2

CCAGTTCG [8-mer CCAGTTCG]
binding signal [1]: 10.4
binding signal [2]: 10.5
binding signal [3]: 10.4

CACTTCAC [8-mer CACTTCAC]
binding signal [1]: 11.4
binding signal [2]: 12.5
binding signal [3]: 10.8

AAGTGGGT [8-mer AAGTGGGT]
binding signal [1]: 11.6
binding signal [2]: 12.4
binding signal [3]: 10.4

CAAGTGGG [8-mer CAAGTGGG]
binding signal [1]: 11.6
binding signal [2]: 12.6
binding signal [3]: 10.5

AACACGGC [8-mer AACACGGC]
binding signal [1]: 10.3
binding signal [2]: 10.3
binding signal [3]: 10.3

CCTCTTGA [8-mer CCTCTTGA]
binding signal [1]: 11.9
binding signal [2]: 12.5
binding signal [3]: 10.6

AGCACTTA [8-mer AGCACTTA]
binding signal [1]: 11.5
binding signal [2]: 12.9
binding signal [3]: 10.8

AAGTGGCG [8-mer AAGTGGCG]
binding signal [1]: 11.7
binding signal [2]: 12.5
binding signal [3]: 10.6

GCTCCTGA [8-mer GCTCCTGA]
binding signal [1]: 10.1
binding signal [2]: 10.1
binding signal [3]: 10.1

CCACTCGA [8-mer CCACTCGA]
binding signal [1]: 11.5
binding signal [2]: 12.4
binding signal [3]: 10.5

ACGGCGAG [8-mer ACGGCGAG]
binding signal [1]: 10.3
binding signal [2]: 10.4
binding signal [3]: 10.2

CGCCTTCC [8-mer CGCCTTCC]
binding signal [1]: 10.3
binding signal [2]: 10.5
binding signal [3]: 10.3

CACTTGAA [8-mer CACTTGAA]
binding signal [1]: 11.9
binding signal [2]: 13.2
binding signal [3]: 10.9

CCCAGTCC [8-mer CCCAGTCC]
binding signal [1]: 10.2
binding signal [2]: 10.3
binding signal [3]: 10.1

AGTACTTG [8-mer AGTACTTG]
binding signal [1]: 10.9
binding signal [2]: 12.6
binding signal [3]: 10.7

TCAAGTGA [8-mer TCAAGTGA]
binding signal [1]: 11.5
binding signal [2]: 12.4
binding signal [3]: 10.8

AAGTGGAG [8-mer AAGTGGAG]
binding signal [1]: 11.4
binding signal [2]: 12.5
binding signal [3]: 10.8

ATCCGGAT [8-mer ATCCGGAT]
binding signal [1]: 10.6
binding signal [2]: 10.8
binding signal [3]: 10.5

CGCGGTCC [8-mer CGCGGTCC]
binding signal [1]: 10.1
binding signal [2]: 10.4
binding signal [3]: 10

CTGGGGGA [8-mer CTGGGGGA]
binding signal [1]: 10.2
binding signal [2]: 10.4
binding signal [3]: 10.1

ACACTTAG [8-mer ACACTTAG]
binding signal [1]: 11.3
binding signal [2]: 12.6
binding signal [3]: 10.9

TAAGTACA [8-mer TAAGTACA]
binding signal [1]: 11.3
binding signal [2]: 12.6
binding signal [3]: 11.1

GCACTTGA [8-mer GCACTTGA]
binding signal [1]: 11.6
binding signal [2]: 13.2
binding signal [3]: 10.7

CACTTGAG [8-mer CACTTGAG]
binding signal [1]: 11.8
binding signal [2]: 13.2
binding signal [3]: 10.6

CACTTGTA [8-mer CACTTGTA]
binding signal [1]: 11.4
binding signal [2]: 12.5
binding signal [3]: 10.8

CGGGCCAG [8-mer CGGGCCAG]
binding signal [1]: 10.1
binding signal [2]: 10.3
binding signal [3]: 10.1

GCAGGCAC [8-mer GCAGGCAC]
binding signal [1]: 10.2
binding signal [2]: 10.4
binding signal [3]: 10.2

AACCAAGC [8-mer AACCAAGC]
binding signal [1]: 10.3
binding signal [2]: 10.5
binding signal [3]: 10.4

CACTTAAC [8-mer CACTTAAC]
binding signal [1]: 11.6
binding signal [2]: 12.8
binding signal [3]: 10.8

CACTTTAA [8-mer CACTTTAA]
binding signal [1]: 11.5
binding signal [2]: 12.5
binding signal [3]: 10.9

GTACTTCA [8-mer GTACTTCA]
binding signal [1]: 11.1
binding signal [2]: 12.5
binding signal [3]: 10.8

CGGAGACC [8-mer CGGAGACC]
binding signal [1]: 10.2
binding signal [2]: 10.3
binding signal [3]: 10.2

CACTTATG [8-mer CACTTATG]
binding signal [1]: 11.8
binding signal [2]: 13.2
binding signal [3]: 11

GCCGACCA [8-mer GCCGACCA]
binding signal [1]: 10.4
binding signal [2]: 10.5
binding signal [3]: 10.3

CTCAAGTA [8-mer CTCAAGTA]
binding signal [1]: 11.3
binding signal [2]: 12.7
binding signal [3]: 10.8

CCACTTAA [8-mer CCACTTAA]
binding signal [1]: 12.4
binding signal [2]: 13.3
binding signal [3]: 10.7

AAGTGGCT [8-mer AAGTGGCT]
binding signal [1]: 11.8
binding signal [2]: 12.5
binding signal [3]: 10.5
